Reference: publication PMC12136788
Some of the results follow.

T1: UNK ZnF1-6 (called full-length) (human, UniProt Q9C0B0 30-357)
T1 sequence: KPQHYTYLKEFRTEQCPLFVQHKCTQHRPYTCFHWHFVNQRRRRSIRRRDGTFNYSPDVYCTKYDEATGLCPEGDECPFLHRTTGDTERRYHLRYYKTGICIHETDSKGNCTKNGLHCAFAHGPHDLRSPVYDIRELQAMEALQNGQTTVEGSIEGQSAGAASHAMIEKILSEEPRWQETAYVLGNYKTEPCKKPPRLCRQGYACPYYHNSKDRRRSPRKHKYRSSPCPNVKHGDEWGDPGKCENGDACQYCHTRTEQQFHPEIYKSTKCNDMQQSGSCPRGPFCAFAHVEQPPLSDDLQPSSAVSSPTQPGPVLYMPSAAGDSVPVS

B1: chr2:24000049:24000165:+|3pUTR|ENSG00000173960|unk|FALSE|unique (ssRNA)
RNA: GGGAGUUCUACAGUCCGACGAUCGUAGCAUAUGACUGGAAACUAUAUUCAGUGCACUUUCUCCAAAAGACUACCCAGAAAAAUAGACUUAUUUUCAAAUACCAGUUAUCAAGAUAUAUUAAAUAGCUGUAUUGUUUAGAAUCUCAACAGAGGAUUGAGCAUCA
B2: chr16:55506527:55506628:+|3pUTR|ENSG00000087245|msi1|total|mutant (ssRNA)
RNA: GGGAGUUCUACAGUCCGACGAUCUAUCAGUUUUAAUGCUACUACUAACAAUGAACAGUAACAAUAAUAUCCCCCUCAAUUAACCGAGUGCUUUCUAUGUGCAAGGCACUUUUCACGUGUCACCUAUUUUAACCUUUCCAACCACAACAGAGGAUUGAGCAUCA
B3: chr3:112140897:112141281:-|three_prime_utr|ENSG00000172139|control|control|control (ssRNA)
RNA: GGGAGUUCUACAGUCCGACGAUCACUUUUUGCAAAAUUUCCUUGAUUUAAAAUAUUUGUUAUUUUAAAUAUACAAAACAUUUUAGAAAAUCUUAGAGUAAAUUUUAGUCUUAAAGCCAGAAAAUAAGUUUAUAGCCAUCUAGACAACAGAGGAUUGAGCAUCA
B4: ENSG00000198589:be:win_1101|CDS|ENSG00000198589|bound_else_gene|NA|bound_elsewhere_windowed (ssRNA)
RNA: GGGAGUUCUACAGUCCGACGAUCCAGUGAAGCUCUAAAUGCAGCUCAGAUAUUUGCUAUUUAUCAGUUGGGCCUGGGAUACAAGGGUACAUUUAAAUUCAAAGCAGAAAGCGACCUUUUCCUUGCUGAGCAUCACAAACUUUUCAACAGAGGAUUGAGCAUCA
B5: chr4:173248057:173248158:+|CDS|ENSG00000109586|unk|FALSE|bound_elsewhere (ssRNA)
RNA: GGGAGUUCUACAGUCCGACGAUCUUCAAACCUGUGGUACCAUGGCCUCAUGUUGAAGGAGUAGAAGUGGACUUAGAGUCUAUUAGAAGAAUAAACAAGGCCAAAAAUGAACAAGAGCACCAUGCUGGAGGAGAUUCCCAGAAACAACAGAGGAUUGAGCAUCA
B6: chr12:6965580:6965681:-|3pUTR|ENSG00000215021|unk|FALSE|unique (ssRNA)
RNA: GGGAGUUCUACAGUCCGACGAUCGUCAUUAUCUAUCUUUUUUUUCCUACAGUGACAGCCUCAUCAAGGGUAAGAAAUGAGCCUAGUCACCAAGAACUCCACCCCCAGAGGAAGUGGAUCUGCUUCUCCAGUUUUUGAGGAGCCCAACAGAGGAUUGAGCAUCA
B7: chr10:75397829:75398748:-|three_prime_utr|ENSG00000165655|control|control|control (ssRNA)
RNA: GGGAGUUCUACAGUCCGACGAUCCACUUUCACCUCCCCACCCAAACUUUAUAAAAGUUGAAAAAAUAUCAUUUGACUUUUUAUAGAAAAAAAAAGGAAAAAAUAAUUGAGAAAGUGUUCAUCUGAGGACUGCAUCGGUGGACACAACAGAGGAUUGAGCAUCA
B8: chr16:57758216:57758909:-|three_prime_utr|ENSG00000140859|control|control|control (ssRNA)
RNA: GGGAGUUCUACAGUCCGACGAUCGGGCCUGAAGCUGGGCCCUCACUGGCCUGUCCCUGCUGCAGCGCCAGGACCCCCGGAGGUAGAGGCGAGAGUGGAGGCUCUUCUUCUGCCCCGUCUCCCCUCAAAGAUGAGAAACAUGUUCAACAGAGGAUUGAGCAUCA
B9: chr2:227551976:227552087:+|CDS|ENSG00000173744|unk|FALSE|bound_elsewhere (ssRNA)
RNA: GGGAGUUCUACAGUCCGACGAUCUCCAUGAGCAUGCCCACAGGAUUCGGCACUCCUGCUCCCUACAGUCUUCCCACCAGCUUUAGUGGCAGCUUUCAGCAGCCUGCCUUUCCAGCCCAAGCAGCUUUCCCUCAACAGACAGCUCAACAGAGGAUUGAGCAUCA
B10: chr5:123575802:123575904:+|CDS|ENSG00000151292|unk|FALSE|unique (ssRNA)
RNA: GGGAGUUCUACAGUCCGACGAUCACCUGAGAACUUCUUAAUAGGACGACCAGGAAACAAAACCCAGCAAGUUAUUCACAUUAUAGAUUUUGGUUUGGCAAAGGAAUAUAUUGAUCCGGAGACAAAGAAACACAUACCAUACAGCAACAGAGGAUUGAGCAUCA
B11: chr5:173316791:173316892:-|3pUTR|ENSG00000113739|msi1|total|mutant (ssRNA)
RNA: GGGAGUUCUACAGUCCGACGAUCGGAAACCUUAUACCCAGAGGAAAAUACACACCUGGGGAGUACAUUUGACAAAUUUCCCUCCGGAUUUCGUUAUCUCACCUUGACCCUCAGCCAAGAUUGGUAAAGCUGCGUCCUGGCGAUCAACAGAGGAUUGAGCAUCA
B12: chr2:218264180:218264222:-|3pUTR|ENSG00000127837|msi1_unk|FALSE|overlapping (ssRNA)
RNA: GGGAGUUCUACAGUCCGACGAUCUUGAGGUUCCCGUUCUUUCCCUUCCCAAGUCUCUGGGGGUGGAAAGGAGGAAGAGAUACUAGUUAAAGAUUUUAAAAAUGUAAAUAAAAUAUACUUCCCAGAGACAGAGUCUGUGUGGAUCAACAGAGGAUUGAGCAUCA
B13: chr4:108667468:108667493:+|3pUTR|ENSG00000198856|msi1_unk|FALSE|overlapping (ssRNA)
RNA: GGGAGUUCUACAGUCCGACGAUCGAAUUUUUUUUCCUGCUGGCCUAUUGCUAUACCAAUGAUGUUGAGUGGCAUUUUCUUUUUAGUUUUUCAUUAAAAUAUAUUCCAUAUCUACAACUAUAAUAUCAAAUAAAGUGAUUAUUUCAACAGAGGAUUGAGCAUCA
B14: chr9:135932998:135933099:-|3pUTR|ENSG00000130560|unk|total|mutant (ssRNA)
RNA: GGGAGUUCUACAGUCCGACGAUCGCUGCUUGAAUUGCCGUGCCGACAUUUGCUUGGAGAGUCCACUUGUUAUUUGACGGAGGCCGGUUUCAACCCAGAGUUAAUGUCAAGCAUGCUAAUUUAACCCGUCACUCACAGAUGACUCAACAGAGGAUUGAGCAUCA
B15: chr17:80395157:80395266:+|3pUTR|ENSG00000173821|unk|FALSE|bound_elsewhere (ssRNA)
RNA: GGGAGUUCUACAGUCCGACGAUCCUUCAAAGCCUUAACUGUCAAAUCUUGCAUUAUCUUGUUUGUACAGAAAUAUACUGGCCUAGCAGAGGCAAAAAAAAAAAAAAUGAAUUUUAUUUUACUUGUCACACCUGUCUUAAUAAACAACAGAGGAUUGAGCAUCA
B16: chr4:150265445:150265561:-|3pUTR|ENSG00000198589|unk|FALSE|bound_elsewhere (ssRNA)
RNA: GGGAGUUCUACAGUCCGACGAUCGGAUUAGCAAAGCAGAAAACUGGCUGCUGGGUUCUGUAGUUUUAAAAAAUCUAUAUUUUUAGUCAUAAUGAGAAGUCUAUUUUCACCAAUUAUGGAAACAUACAGUGGAGCAAGUAAACCCAACAGAGGAUUGAGCAUCA
B17: ENSG00000198589:be:win_4251|CDS|ENSG00000198589|bound_else_gene|NA|bound_elsewhere_windowed (ssRNA)
RNA: GGGAGUUCUACAGUCCGACGAUCUAUAUUUGCAAGUUCUCUUGGCUUUACUGAAAUUGAAGCUGAAAAAAGUAUGUCAUCUGGAGGAAUUUUGCGGCAGUGUCUCCGACUAGUUUGUGCAGUCGCAGUAAGGAAUUGCUUGGACAACAGAGGAUUGAGCAUCA
B18: chr7:158693335:158693439:-|CDS|ENSG00000146918|unk|FALSE|unique (ssRNA)
RNA: GGGAGUUCUACAGUCCGACGAUCAAGGAAACAGAAAGAAGAAUUAUGGCAAAGGCUGAAGAAUUUAUUGACAGAUGUGUUGUUAGAAAGCCCAGUGGAUGGGUGGCAGGUAGUGGAAGCCCAGGGUGAAGACAAUAUGGAAACCAACAGAGGAUUGAGCAUCA
B19: chr5:16663783:16663884:-|3pUTR|ENSG00000145555|msi1|FALSE|bound_elsewhere (ssRNA)
RNA: GGGAGUUCUACAGUCCGACGAUCUGAGGAUACAAAAUUCACAGAUGCUCAAGUCCCUGCUAUACAGUGGUAUAAUAUUUGCAUAGAACCUGCACACAUCUUUCCUUACCCUUUAAAUCAUCUCCAGGUUACAGAUACCUAGCACAACAGAGGAUUGAGCAUCA
B20: chr1:32196422:32196614:+|3pUTR|ENSG00000084652|msi1|FALSE|unique (ssRNA)
RNA: GGGAGUUCUACAGUCCGACGAUCACAGUUGUUUCUGUGUCCUGUUCUACCCCCACUCCAGUACAUAACUACUAUGUACUGUGUAGAGCCAUUCUAUAUGCUGAAUGUUCUGCUGUUGCAAACUUGCCAGGGUAUUAGCCAGUGCAACAGAGGAUUGAGCAUCA
B21: chr21:31659700:31659757:+|5pUTR|ENSG00000142168|msi1_unk|total|mutant (ssRNA)
RNA: GGGAGUUCUACAGUCCGACGAUCCGAGGCGCGGAGGUCUGGCCUAUAAAGCCGUCGCGGAGACGGGGUGCUGGUUUGCGUCGCCGUCUCCUGCAGCGUCUGGGGUUUCCGUUGCAGUCCUCGGAACCAGGACCUCGGCGUGGCCAACAGAGGAUUGAGCAUCA
B22: chr1:88684422:88684524:+|5pUTR|ENSG00000065243|unk|total|mutant (ssRNA)
RNA: GGGAGUUCUACAGUCCGACGAUCUCGAUGAACCGGACGGAAUAAGCCGCGCCUCCAGCAGGGGCUGCGCCUCCAUGAAUCCCCCGUUGUUUUUUUUUUUUUCUUUCUCUCCCCUCUCCUCACCCCCACCCCGAGCCCCGUCCCCAACAGAGGAUUGAGCAUCA

The binders below were run against T1, UNK ZnF1-6 (called full-length) (assay: nsRBNS (natural sequence RNA bind-n-seq); RBNS binding buffer (assumed for nsRBNS): 25 mM Tris pH 7.5, 150 mM KCl, 3 mM MgCl2, 0.01% Triton X-100, 500 ug/ml BSA, 20 U/ml SUPERase-In, 4 C; UNK is unkempt and MSI1 is Musashi-1; names of the RNAs are library labels; protein concentration not given here; high values mean tight binding).
Work on B1 yielded a binding signal of 3.33 enrichment R. Binder B2 has a binding signal of 0.757 enrichment R. In the case of B3, the binding signal is reported as 2.83 enrichment R. With B4 the binding signal was 0.4 enrichment R. In the case of B5, the binding signal is reported as 1.08 enrichment R. Binder B6 has a binding signal of 2.04 enrichment R. For B7, the binding signal was 0.652 enrichment R. For B8, the binding signal was 0.756 enrichment R. Work on B9 yielded a binding signal of 1.07 enrichment R. With B10 the binding signal was 1.16 enrichment R. For B11, the binding signal was 0.493 enrichment R. B12 gave a binding signal of 6.35 enrichment R. Binder B13 has a binding signal of 5.27 enrichment R. Binder B14 has a binding signal of 0.423 enrichment R. B15 showed a binding signal of 0.564 enrichment R. For B16, the binding signal was 2.4 enrichment R. With B17 the binding signal was 0.48 enrichment R. B18 was tested, and the binding signal was 1.06 enrichment R. B19 showed a binding signal of 0.456 enrichment R. For B20, the binding signal was 0.631 enrichment R. In the case of B21, the binding signal is reported as 0.536 enrichment R. B22 was tested, and the binding signal was 3.43 enrichment R.
